Test results: PubChem BioAssay AID1768 (National Center for Advancing Translational Sciences (NCATS), 2009)
Screen size: about 270,000 compounds; about 620 (0.23%) were called active. The shares of active, inactive and inconclusive entries below differ from those in the screen. The call rests on the fitted dose curve; in most records, active means well fitted inhibition curve with a large enough effect in the polarisation, with a control signal flat (not every such curve was filed as active); inconclusive means small, poorly fitted or top-dose-only effect, or effect the other way, or a change in a side signal; inactive means no such curve, though single readings can be large or run the other way; the % refers to the polarisation. Potencies of inconclusive entries are doubtful fits and often do not repeat. A note “side channel” means that the fit belongs to a control or component signal, not to the main read-out.

Target: Menin (Homo sapiens) (UniProt O00255)
Assay: qHTS Assay for Inhibitors Targeting the Menin-MLL Interaction in MLL Related Leukemias: Competition With Texas Red Labeled MLL-derived Mutant Peptide
Details: fluorescence polarization; series mostly up to 61.6 µM
Potency means the concentration at half of the fitted maximal effect; tags describe the fitted curve by direction and shape or compound fluorescence and quenching.

Sequence of UniProt O00255 (O00255 whole entry, looked up): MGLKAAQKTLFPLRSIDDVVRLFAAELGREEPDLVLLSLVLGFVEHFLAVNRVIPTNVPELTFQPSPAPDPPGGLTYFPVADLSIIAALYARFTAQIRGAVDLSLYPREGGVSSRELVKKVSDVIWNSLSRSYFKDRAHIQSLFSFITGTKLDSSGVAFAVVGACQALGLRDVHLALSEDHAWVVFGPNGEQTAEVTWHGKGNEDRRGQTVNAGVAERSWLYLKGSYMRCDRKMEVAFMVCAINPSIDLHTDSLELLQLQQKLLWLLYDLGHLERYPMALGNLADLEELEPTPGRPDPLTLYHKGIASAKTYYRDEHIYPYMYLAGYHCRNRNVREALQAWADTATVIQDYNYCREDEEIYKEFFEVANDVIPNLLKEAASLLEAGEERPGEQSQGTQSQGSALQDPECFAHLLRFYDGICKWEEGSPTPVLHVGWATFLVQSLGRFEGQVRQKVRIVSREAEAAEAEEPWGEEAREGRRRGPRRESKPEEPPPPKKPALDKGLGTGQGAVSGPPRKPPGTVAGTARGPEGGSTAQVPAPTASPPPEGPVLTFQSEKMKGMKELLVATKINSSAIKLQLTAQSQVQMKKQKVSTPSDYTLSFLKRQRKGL

Row | Structure (SMILES) | Potency
1 | Cc1cc(=O)oc2c(C)c(OC(C)C(=O)NC3CCN(Cc4ccccc4)CC3)ccc12 (configuration not stated) | inactive
2 | Cc1ccc(CN2CCSCC2)cc1 | inactive
3 | Oc1ccc(N2CCN(c3ccnc4cc(Cl)ccc34)CC2)cc1 | inconclusive: 31.6 µM [quencher, side channel, single point]
4 | Brc1csc(/C=N/Nc2nc3ccccc3s2)c1 | inconclusive: 7.94 µM [quencher, side channel, partial curve]
5 | O=S(=O)(c1cccs1)N1CCC(Cc2ccccc2)CC1 | inconclusive: 3.55 µM [inhibitor, full curve]
6 | S=C(NCCN(C1CCCCC1)C1CCCC1)Nc1cccc(Cl)c1 | inconclusive: 25.1 µM [fluorescent, side channel, single point]
7 | CN(C)S(=O)(=O)c1cccc(NC(=O)CCc2c[nH]c3ccccc23)c1 | inconclusive: 17.8 µM [quencher, side channel, partial curve]
8 | Cc1ccc(C(=O)CSc2nnc(CNc3ccc(F)cc3)o2)cc1 | inconclusive: 10 µM [inhibitor, partial curve]
9 | COc1cc(NC(=O)CCCc2c[nH]c3ccccc23)cc(OC)c1 | inconclusive: 28.2 µM [quencher, side channel, partial curve]
10 | COC(=O)Nc1sccc1C(=O)Nc1sccc1C(=O)OC | inconclusive: 17.8 µM [quencher, side channel, partial curve]
11 | CN(C)c1ccc(NC(=O)c2ccc3nsnc3c2)cc1 | inactive
12 | COc1ccc(CNC(=O)C2CCCN(C(=O)Nc3ccccc3OC)C2)cc1 (configuration not stated) | inconclusive: 20 µM [fluorescent, partial curve]
13 | CCOC(=O)c1[nH]c2ccc(OC)cc2c1NC(=O)c1ccc2c(c1)OCO2 | inconclusive: 28.2 µM [quencher, side channel, partial curve]
14 | C=CCNc1cnn(-c2ccc(C)cc2)c(=O)c1Sc1ccc(C)cc1 | inconclusive: 8.91 µM [fluorescent, side channel, partial curve]
15 | O=C(CCNc1ccc(Cl)c(C(F)(F)F)c1)c1ccco1 | inconclusive: 15.8 µM [quencher, side channel, partial curve]
16 | CCCCCCN(C(=O)CCCCCN1C(=O)NC(c2ccccc2-c2ccccc2)C(C(=O)OCc2ccccc2)=C1C)C(C(=O)NCCCC)c1ccc(OCC(=O)OC)c(C(=O)OC)c1 (configuration not stated) | inactive
17 | CCN(CC)S(=O)(=O)c1ccc(S(=O)(=O)Nc2ccc3c(c2)oc2ccccc23)cc1 | inconclusive: 31.6 µM [quencher, side channel, partial curve]
18 | COc1ccc(-c2cc(C(=O)N3CC4(C)CC3CC(C)(C)C4)no2)cc1OC (configuration not stated) | inconclusive: 1.58 µM [fluorescent, side channel, full curve, poor fit]
19 | O=C(Nc1cc(Cl)cc(Cl)c1)C1CCC(=O)N1Cc1ccccc1Cl (configuration not stated) | inconclusive: 11.2 µM [quencher, side channel, partial curve]

Row | Structure (SMILES) | Potency
20 | COc1ccc(-c2noc(COc3ccc4c(c3)OCO4)n2)cc1 | inconclusive: 39.8 µM [inhibitor, partial curve]
21 | C=CCOc1ccc(-c2nc3c(c(=O)[nH]c(=O)n3CCCC)n2C)cc1Br | inconclusive: 22.4 µM [fluorescent, side channel, single point]
22 | O=C1/C(=C/Nc2ccc3c(c2)OCO3)CCc2ccccc21 | inconclusive: 35.5 µM [quencher, side channel, single point]
23 | CC(C)NC(=S)NN=C1CCCCCCCCCCC1 | inconclusive: 12.6 µM [fluorescent, side channel, partial curve]
24 | CC(C)C(NC(=O)C(CC(=O)O)NC(=O)C(CCCCN)NC(=O)C(N)CCCN=C(N)N)C(=O)NC(Cc1ccc(O)cc1)C(=O)O (configuration not stated) | inactive
25 | Cc1nc(-c2ccccc2)nc2[nH]c(=O)n(-c3ccccc3)c(=O)c12 | inconclusive: 7.94 µM [inhibitor, single point]
26 | CCOC(=O)CC1=NN(c2ccccc2)C(=O)/C1=C\c1ccc(N(C)C)cc1 | inconclusive: 11.2 µM [quencher, side channel, partial curve]
27 | O=C(O)c1ccc(Nc2nc(-c3ccccc3)cs2)cc1 | inconclusive: 14.1 µM [quencher, side channel, partial curve]
28 | CNc1nc(Cl)c(SC)c(NCc2cccc(OC)c2)n1 | inconclusive: 28.2 µM [inhibitor, single point]
29 | Cc1ccc(NCC(=O)N=Nc2c(O)n(C)c3ccccc23)cc1 | inconclusive: 10 µM [quencher, side channel, partial curve]
30 | Cn1ccc2cc(NC(=O)Nc3cccnc3)ccc21 | inconclusive: 31.6 µM [quencher, side channel, partial curve]
31 | COc1cccc2c1OC(=O)CC2c1ccccc1C (configuration not stated) | inactive
32 | CC12CC(NC(=O)N1c1cccc(C(=O)N3CCN(c4ccccc4)CC3)c1)c1ccccc1O2 (configuration not stated) | inconclusive: 6.31 µM [fluorescent, side channel, partial curve]
33 | Cc1cc(NC(=O)Cc2ccccc2)nc2c1c(=O)oc1ccccc12 | inconclusive: 28.2 µM [quencher, side channel, single point]
34 | O=C(N/N=C/c1cc(Br)cc([N+](=O)[O-])c1O)c1ccc(NC(=O)c2ccc(F)cc2)cc1 | inconclusive: 1.78 µM [quencher, side channel, full curve]
35 | N=C1S/C(=C\c2ccc(O)cc2)C(=O)N1c1ccc(F)cc1 | inconclusive: 17.8 µM [quencher, side channel, partial curve]
36 | CCCOC(=O)c1ccc(Oc2c(-c3ccc(OC)cc3O)n[nH]c2C)cc1 | inconclusive: 15.8 µM [quencher, side channel, partial curve]
37 | Cc1noc(C)c1COc1cccc(C(=O)N2CCc3ccccc32)c1 | inconclusive: 25.1 µM [inhibitor, single point]
